# PubChem BioAssay (NCATS)
# The inconclusive results got no clear call from the source; some entries with a clear call stand among them for comparison. For part of these data: Where the call is inconclusive, the potency comes from a doubtful curve fit. Calls of active or inactive are those of the source. Unless noted, calls follow the shape of the dose curve; as a rule, active = well fitted curve in the direction sought with a large enough effect; inconclusive = small, poorly fitted or top-dose-only effect, or another doubt; inactive = no such curve, though single readings can be large; an effect the other way counts as inactive or inconclusive.
# Assays:
# [1] = P-glycoprotein substrates identified in KB-8-5-11 adenocarcinoma cell line, qHTS therapeutic library screen (AID 1346987); conditions: activity change, negative = cytotoxicity: at 44.5 µM (top of the series); also: nearly all actives have a fitted effect of over 65% in size; also: potency is read from the fitted curve at half-maximal effect
# Method in brief: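 Compounds are pinned in dose-response onto KB-8-5-11 cells (500 cells/well, colchicine-free medium) and left 72 h at 37 degree C. CellTiter-Glo luminescence then yields AC50 values.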
# [2] = P-glycoprotein substrates identified in KB-3-1 adenocarcinoma cell line, qHTS therapeutic library screen (AID 1346986); also: nearly all actives have a fitted effect of over 60% in size;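 also: potency is read from the fitted curve at half-maximal effect; potency is for cytotoxicity meaning loss of cell viability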
# Method in brief: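 In 1536-well format, 500 cells/well received pinned compound titrations and were incubated 72 h, 5% CO2. Viability was read by CellTiter-Glo; cytotoxic if AC50 < 10 uM and efficacy >50%.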
# [3] = Primary qHTS for inhibitors of nuclear receptor binding SET domain protein 2 (NSD2) in an isogenic RCH-ACV NSD2 p.E1099K mutant (9B) (AID 1645876); conditions: activity change, negative = viability loss: at 44.9 µM (top of the series) unless noted; also: potency is read from the fitted curve at half-maximal effect; nearly all actives have a fitted effect of over 70% in size
# [4] = Primary qHTS for inhibitors of nuclear receptor binding SET domain protein 2 (NSD2) in an RCH-ACV wild type WT cells (2C) (AID 1645877); conditions: activity change, negative = cell killing: at 44.9 µM (top of the series) unless noted; also: nearly all actives have a fitted effect of over 70% in size; also: potency is read from the fitted curve at half-maximal effect
# [5] = target: Phospholipid hydroperoxide glutathione peroxidase GPX4 (Homo sapiens) (UniProt P36969); assay: Primary qHTS Assay for Inhibitors of Recombinant Selenoprotein Glutathione Peroxidase 4 (GPX4) (AID 1845192); conditions: activity change, negative = inhibition: at 50 µM (top of the series) unless noted; also: potency is read from the fitted curve at half-maximal effect; nearly all actives have a fitted effect of over 65% in size
# UniProt P36969, sequence (P36969 whole entry, looked up): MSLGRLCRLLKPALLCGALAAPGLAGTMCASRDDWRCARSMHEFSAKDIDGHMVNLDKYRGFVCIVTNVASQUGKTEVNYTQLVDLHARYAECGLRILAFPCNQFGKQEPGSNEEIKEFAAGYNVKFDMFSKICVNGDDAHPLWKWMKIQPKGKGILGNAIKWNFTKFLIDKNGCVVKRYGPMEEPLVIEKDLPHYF
# Method in brief: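 Steps: GPX4 plus compound, 30 min RT; add GR/GSH/NADPH master mix; start with cumene hydroperoxide; read 340/450 nm fluorescence at 0 and 15 min. Finals were 200 nM GPX4, 1 mM GSH, 0.5 mM CHP, 0.5 mM NADPH, 100 nM GR.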
# [6] = Primary fluorescence-based thiol-reactive (MSTI) qHTS assay for identification of artifact compounds. (AID 1845221);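 also: thiol-reactive compounds lower the probe fluorescence signal; nearly all actives have a fitted effect of over 65% in size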
# Method in brief: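 MSTI probe at 4 uM final in 2% DMSO/PBS pH 7.4; compounds, 1 h at room temperature in dark. Fluorescence Ex/Em 525/598 nm, normalised to Acetyl-MSTI and MSTI, fitted to 4-parameter Hill.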
# [7] = NCATS anti-infectives library activity on HEK293 viability as a counter-qHTS vs the C. elegans viability qHTS (AID 1745854); also: potency is read from the fitted curve at half-maximal effect
# Method in brief: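 Cytotoxicity counter-screen to a worm viability qHTS: CellTiter-Glo luminescence read 10 min after reagent addition. Compounds (final up to 41.7 uM, a 1:5 dilution series) incubated 24 hr at 37C with 1,500 HEK293 cells per well; digitonin control.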
# [8] = NCATS anti-infectives library activity on the primary C. elegans qHTS viability assay (AID 1745855; calls by dose curve; also: potency is read from the fitted curve at half-maximal effect)
# Method in brief: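 GFP read-out by 488 nm laser cytometry at day 0, 3 and 7, gated on object perimeter, area and peak intensity, scored viability of PE254-GFP-FLuc worms exposed to compound in S medium with bacterial capsules at 21 °C.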
# [9] = target: Glutathione peroxidase 1 (Homo sapiens) (UniProt P07203); assay: Primary qHTS Assay for Inhibitors of Recombinant Selenoprotein Glutathione Peroxidase 1 (GPX1) (AID 1845191); also: nearly all actives have a fitted effect of over 65% in size
# UniProt P07203, sequence (P07203 whole entry, looked up): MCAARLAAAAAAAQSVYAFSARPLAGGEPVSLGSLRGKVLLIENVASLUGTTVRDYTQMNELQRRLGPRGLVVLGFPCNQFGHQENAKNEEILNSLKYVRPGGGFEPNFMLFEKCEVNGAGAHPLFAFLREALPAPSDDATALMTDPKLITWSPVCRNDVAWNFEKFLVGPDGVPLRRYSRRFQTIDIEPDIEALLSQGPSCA
# Method in brief: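 GR-coupled readout: NADPH consumption tracked by fluorescence, ex 340/em 450 nm, at t=0 and after 15 min at RT. Final mix 10 nM GPX1, 1 mM GSH, 0.5 mM CHP, 0.5 mM NADPH, 100 nM GR, 0.01% BSA, following 30 min enzyme–compound preincubation.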
# Tags tell the direction and shape of the fitted curve.
structure (smiles),measurement,setting,value
C=C1CC/C=C(/CO)C(=O)C[C@@H]2[C@@H]1CC2(C)C,Potency,[1],inactive
C=C1CC[C@H](O)CC1=C/C=C1\CCC[C@]2(C)[C@@H]([C@H](C)CC[C@@H](O)C(C)(C)O)CC[C@@H]12,Potency,[1],"inconclusive: 20.6 µM [inhibitor, single point]"
CNC(=O)c1ccc(-c2cnc3cnc(C(=O)N(C)c4ccc(Cl)cc4)cn23)cc1,Potency,[2],"inconclusive: 23.1 µM [inhibitor, single point]"
same,Potency,[3],"inconclusive: 16.4 µM [inhibitor, single point]"
same,Potency,[4],"inconclusive: 18.4 µM [inhibitor, single point]"
C=CC(=O)Nc1cccc(Nc2nc(Nc3ccccc3)ncc2C)c1,Potency,[1],active: 13 µM
O=C1NC(=NCc2cccs2)S/C1=C/c1ccc2ncccc2c1,Potency,[1],"inconclusive: 3.26 µM [inhibitor, full curve]"
CC(CC(c1ccccc1)c1ccccc1)NC(C)(C)C (stereo unspecified),Potency,[1],"inconclusive: 18.4 µM [inhibitor, single point]"
NC(=O)c1cccc(-c2cc(O)cc(OC(=O)NC3CCCCC3)c2)c1,Potency,[2],inactive
same,Potency,[4],inactive
same,Potency,[5],"inconclusive: 9.88 µM [inhibitor, single point]"
same,Potency,[6],inactive
OCCN1CCN(CC/C=C2/c3ccccc3Sc3ccc(Cl)cc32)CC1,Potency,[1],"inconclusive: 7.85 µM [inhibitor, partial curve, poor fit]"
NS(=O)(=O)c1ccc(N=Nc2c(O)[nH]c3ccc(Br)cc23)cc1,Potency,[2],"inconclusive: 29.1 µM [inhibitor, single point]"
same,Potency,[3],"inconclusive: 13 µM [inhibitor, partial curve]"
same,Potency,[4],"inconclusive: 16.4 µM [inhibitor, partial curve]"
Cc1cn(C2OC(CO)C(O)C2F)c(=O)[nH]c1=O (stereo unspecified),Potency,[1],inactive
COC(=O)[C@]12CCC(C)(C)C[C@@H]1[C@@H]1C(=O)C=C3[C@]4(C)C=C(C#N)C(=O)C(C)(C)[C@@H]4CC[C@@]3(C)[C@]1(C)CC2,Potency,[1],active: 1.46 µM
COc1cc(OC)c(/C=C2\C(=O)Nc3ccccc32)c(OC)c1,Potency,[1],active: 0.92 µM
Cc1nc(CNc2ncnc3ccc(-c4ccc5c(c4)OCO5)cc23)cs1,Potency,[2],inactive
same,Potency,[3],"inconclusive: 29.1 µM [inhibitor, single point]"
same,Potency,[4],"inconclusive: 29.1 µM [inhibitor, single point]"
CC(C)n1cc(-c2ccc(Oc3ccccc3)cc2)c2c(N)ncnc21,Potency,[1],active: 9.2 µM
CC[C@@H]1/C=C(\C)C[C@H](C)C[C@H](OC)[C@H]2O[C@@](O)(C(=O)C(=O)N3CCCC[C@H]3C(=O)O[C@H](/C(C)=C/[C@@H]3CC[C@@H](Cl)[C@H](OC)C3)[C@H](C)[C@@H](O)CC1=O)[C@H](C)C[C@@H]2OC,Potency,[1],inactive
CC(=O)[C@@H]1C[C@H](C(C)(C)O[C@@H]2O[C@H](CO)[C@@H](O)[C@H](O)[C@H]2O)CC[C@@]2(CO)OC(=O)C[C@@H]12,Potency,[1],inactive
COc1c(-c2ccc3cc(NS(C)(=O)=O)ccc3c2)cc(-n2ccc(=O)[nH]c2=O)cc1C(C)(C)C,Potency,[2],"inconclusive: 25.9 µM [inhibitor, single point]"
same,Potency,[3],"inconclusive: 29.1 µM [inhibitor, single point]"
same,Potency,[4],"inconclusive: 29.1 µM [inhibitor, single point]"
same,Potency,[7],"inconclusive: 14.1 µM [cytotoxic, partial curve, poor fit]"
same,Potency,[5],active: 3.98 µM
CC(C)(C)n1nc(-c2ccc(Cl)cc2)c2c(N)ncnc21,Potency,[1],"inconclusive: 23.1 µM [inhibitor, single point]"
Cc1cncc2cccc(S(=O)(=O)N3CCCNC[C@@H]3C)c12,Potency,[1],active: 1.64 µM
Cn1cc(C2=C(c3cn(CCCSC(=N)N)c4ccccc34)C(=O)NC2=O)c2ccccc21,Potency,[2],active: 5.17 µM
same,Potency,[3],active: 1.46 µM
same,Potency,[4],active: 1.64 µM
O=C1NCCCc2c1oc1ccc(O)cc21,Potency,[2],"inconclusive: 29.1 µM [inhibitor, single point]"
same,Potency,[3],"inconclusive: 20.6 µM [inhibitor, single point]"
same,Potency,[4],"inconclusive: 9.2 µM [inhibitor, partial curve]"
Cc1ccc2cc(-c3c(C)ccc(C(=O)c4c(-c5ccccc5)n(C)n(-c5ccccc5)c4=O)c3N)ccc2n1,Potency,[2],"inconclusive: 29.1 µM [inhibitor, single point]"
same,Potency,[3],"inconclusive: 25.9 µM [inhibitor, single point]"
same,Potency,[4],"inconclusive: 29.1 µM [inhibitor, partial curve, poor fit]"
same,Potency,[5],"inconclusive: 8.06 µM [inhibitor, partial curve, poor fit]"
Cc1cc(Nc2cc(C)c(C#N)c(NC(C)CCCC(C)(C)O)n2)n[nH]1 (stereo unspecified),Potency,[1],active: 1.3 µM
OC[C@@H](O)C(O)[C@H](O)CO,Potency,[1],inactive
CN1CCN(C2=Nc3ccccc3Cc3ccccc32)CC1,Potency,[1],"inconclusive: 18.4 µM [inhibitor, partial curve]"
O=S(O)CNc1ccc(S(=O)(=O)c2ccc(NCS(=O)O)cc2)cc1,Potency,[1],"inconclusive: 23.1 µM [inhibitor, single point]"
O=C1CCCC2=C1C1(CCSCC1)N=C(Nc1nc3ccccc3o1)N2,Potency,[2],"inconclusive: 25.9 µM [inhibitor, single point]"
same,Potency,[4],inactive
C=C1C[C@]23C[C@H]1CC[C@H]2[C@]1(C)CCC[C@@]2(CO)C(=O)O[C@H]([C@H]21)[C@@H]3O,Potency,[1],inactive
CN1CCN(CCCN2c3ccccc3Sc3ccccc32)CC1,Potency,[1],"inconclusive: 29.1 µM [inhibitor, single point]"
CSc1nc(N)cc(Oc2ccc(-c3nc(Nc4cccc(C(F)(F)F)c4)n[nH]3)cc2)n1,Potency,[1],active: 5.8 µM
COc1ccc2c(c1)[C@@H]1C[C@]1(C(=O)N1[C@@H]3CC[C@H]1CN(C)C3)Cn1c-2c(C2CCCCC2)c2ccc(C(=O)NS(=O)(=O)N(C)C)cc21,Potency,[2],"inconclusive: 29.1 µM [inhibitor, single point]"
same,Potency,[4],"inconclusive: 23.1 µM [inhibitor, single point]"
same,Potency,[8],"inconclusive: 23 µM [inhibitor, single point]"
CC(=O)OC1C(O)CC(O[C@@H]2O[C@H](CO)[C@@H](O)[C@H](O)[C@H]2O)C2CCC3C(=O)OC(c4ccoc4)CC3(C)C21 (stereo partly specified),Potency,[1],inactive
O=Nc1c2[nH]c3ccccc3nc-2c2ccccc12,Potency,[2],"inconclusive: 29.1 µM [inhibitor, single point]"
same,Potency,[4],"inconclusive: 23.1 µM [inhibitor, single point]"
Cn1c(CNc2cccc(C(=O)NCc3ccccc3C(F)(F)F)c2)nnc1-c1ccncc1,Potency,[2],"inconclusive: 11.6 µM [inhibitor, partial curve]"
same,Potency,[3],"inconclusive: 9.2 µM [inhibitor, partial curve]"
CC(C)(N)c1cc(C(=O)N[C@@H]2CCc3ccc(Oc4ccnc5c4CCC(=O)N5)cc3C2)cc(C(F)(F)F)c1,Potency,[1],"inconclusive: 29.1 µM [inhibitor, single point]"
Cc1cc(Nc2nn(-c3ccccc3)c(=O)c3ccccc23)n[nH]1,Potency,[2],active: 6.51 µM
same,Potency,[9],inactive
C/C(=C1/C(=O)Nc2ccc(NC(N)=O)cc21)c1ccc[nH]1,Potency,[2],active: 4.61 µM
same,Potency,[3],active: 1.64 µM
CC(Sc1nc2c(cnn2-c2cccc(Cl)c2)c(=O)[nH]1)C(N)=O (stereo unspecified),Potency,[1],inactive
CCOC(=O)[C@H](CCc1ccccc1)N[C@@H](C)C(=O)N1CC2(C[C@H]1C(=O)O)SCCS2,Potency,[1],"inconclusive: 16.4 µM [inhibitor, single point]"
